Test results from article PMC9911399, “Two distinct binding modes provide the RNA-binding protein RbFox with extraordinary sequence specificity”.
Positions count from the first letter of the chain named. This is one part of the list.

T1: RBFOX1 RRM (Homo sapiens, UniProt Q9NWB1 109-208)
T1 sequence: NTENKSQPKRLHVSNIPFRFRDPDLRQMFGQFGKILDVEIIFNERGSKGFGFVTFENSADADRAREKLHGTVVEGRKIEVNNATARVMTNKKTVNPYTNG

B1: UUGGAGU (DNA:RNA)
RNA: GGGAGACCGGAAUUCAGAUUGUCCUUGGAGUUUAAAUCCCGUCGUAGCCACCA
DNA 1: CAATCTGAATTCCGGTCTCCC
DNA 2: TGGTGGCTACGACGGGATT
B2: UCGCGAA (DNA:RNA)
RNA: B1 RNA with U26C, G28C, A29G, G30A, U31A
DNA 1: CAATCTGAATTCCGGTCTCCC
DNA 2: TGGTGGCTACGACGGGATT
B3: AAAUAAU (DNA:RNA)
RNA: B1 RNA with U25A, U26A, G27A, G28U, G30A
DNA 1: CAATCTGAATTCCGGTCTCCC
DNA 2: TGGTGGCTACGACGGGATT
B4: UCCCCGC (DNA:RNA)
RNA: B1 RNA with U26C, G27C, G28C, A29C, U31C
DNA 1: CAATCTGAATTCCGGTCTCCC
DNA 2: TGGTGGCTACGACGGGATT
B5: UGUGGGA (DNA:RNA)
RNA: B1 RNA with U26G, G27U, A29G, U31A
DNA 1: CAATCTGAATTCCGGTCTCCC
DNA 2: TGGTGGCTACGACGGGATT
B6: CCAGCUG (DNA:RNA)
RNA: B1 RNA with U25C, U26C, G27A, A29C, G30U, U31G
DNA 1: CAATCTGAATTCCGGTCTCCC
DNA 2: TGGTGGCTACGACGGGATT
B7: UACUUGA (DNA:RNA)
RNA: B1 RNA with U26A, G27C, G28U, A29U, U31A
DNA 1: CAATCTGAATTCCGGTCTCCC
DNA 2: TGGTGGCTACGACGGGATT
B8: UUUGGUA (DNA:RNA)
RNA: B1 RNA with G27U, A29G, G30U, U31A
DNA 1: CAATCTGAATTCCGGTCTCCC
DNA 2: TGGTGGCTACGACGGGATT
B9: GGAUCUG (DNA:RNA)
RNA: GGGAGACCGGAAUUCAGAUUGUCCGGAUCUGUUAAAUCCCGUCGUAGCCACCA
DNA 1: CAATCTGAATTCCGGTCTCCC
DNA 2: TGGTGGCTACGACGGGATT
B10: AAGCUCG (DNA:RNA)
RNA: B9 RNA with G25A, G26A, A27G, U28C, C29U, U30C
DNA 1: CAATCTGAATTCCGGTCTCCC
DNA 2: TGGTGGCTACGACGGGATT
B11: GACAACG (DNA:RNA)
RNA: B9 RNA with G26A, A27C, U28A, C29A, U30C
DNA 1: CAATCTGAATTCCGGTCTCCC
DNA 2: TGGTGGCTACGACGGGATT
B12: AUUAGAU (DNA:RNA)
RNA: B1 RNA with U25A, G27U, G28A, A29G, G30A
DNA 1: CAATCTGAATTCCGGTCTCCC
DNA 2: TGGTGGCTACGACGGGATT
B13: UAAUACU (DNA:RNA)
RNA: B1 RNA with U26A, G27A, G28U, G30C
DNA 1: CAATCTGAATTCCGGTCTCCC
DNA 2: TGGTGGCTACGACGGGATT
B14: CAGUCAC (DNA:RNA)
RNA: B9 RNA with G25C, G26A, A27G, U30A, G31C
DNA 1: CAATCTGAATTCCGGTCTCCC
DNA 2: TGGTGGCTACGACGGGATT
B15: CUUGCUA (DNA:RNA)
RNA: B9 RNA with G25C, G26U, A27U, U28G, G31A
DNA 1: CAATCTGAATTCCGGTCTCCC
DNA 2: TGGTGGCTACGACGGGATT
B16: UCGAGAU (DNA:RNA)
RNA: B1 RNA with U26C, G28A, A29G, G30A
DNA 1: CAATCTGAATTCCGGTCTCCC
DNA 2: TGGTGGCTACGACGGGATT
B17: ACGAUGC (DNA:RNA)
RNA: B1 RNA with U25A, U26C, G28A, A29U, U31C
DNA 1: CAATCTGAATTCCGGTCTCCC
DNA 2: TGGTGGCTACGACGGGATT
B18: CGAUUAU (DNA:RNA)
RNA: B9 RNA with G25C, C29U, U30A, G31U
DNA 1: CAATCTGAATTCCGGTCTCCC
DNA 2: TGGTGGCTACGACGGGATT
B19: GCGAUAA (DNA:RNA)
RNA: B9 RNA with G26C, A27G, U28A, C29U, U30A, G31A
DNA 1: CAATCTGAATTCCGGTCTCCC
DNA 2: TGGTGGCTACGACGGGATT
B20: UAAGGGG (DNA:RNA)
RNA: B1 RNA with U26A, G27A, A29G, U31G
DNA 1: CAATCTGAATTCCGGTCTCCC
DNA 2: TGGTGGCTACGACGGGATT
B21: CACACCU (DNA:RNA)
RNA: B9 RNA with G25C, G26A, A27C, U28A, U30C, G31U
DNA 1: CAATCTGAATTCCGGTCTCCC
DNA 2: TGGTGGCTACGACGGGATT
B22: UGCGGCU (DNA:RNA)
RNA: B1 RNA with U26G, G27C, A29G, G30C
DNA 1: CAATCTGAATTCCGGTCTCCC
DNA 2: TGGTGGCTACGACGGGATT
B23: CGUGGUU (DNA:RNA)
RNA: B9 RNA with G25C, A27U, U28G, C29G, G31U
DNA 1: CAATCTGAATTCCGGTCTCCC
DNA 2: TGGTGGCTACGACGGGATT
B24: CCCGCGU (DNA:RNA)
RNA: B1 RNA with U25C, U26C, G27C, A29C
DNA 1: CAATCTGAATTCCGGTCTCCC
DNA 2: TGGTGGCTACGACGGGATT
B25: GCCGUGG (DNA:RNA)
RNA: B9 RNA with G26C, A27C, U28G, C29U, U30G
DNA 1: CAATCTGAATTCCGGTCTCCC
DNA 2: TGGTGGCTACGACGGGATT
B26: UGUUAAG (DNA:RNA)
RNA: B9 RNA with G25U, A27U, C29A, U30A
DNA 1: CAATCTGAATTCCGGTCTCCC
DNA 2: TGGTGGCTACGACGGGATT
B27: AGACUGG (DNA:RNA)
RNA: B9 RNA with G25A, U28C, C29U, U30G
DNA 1: CAATCTGAATTCCGGTCTCCC
DNA 2: TGGTGGCTACGACGGGATT
B28: GACACGA (DNA:RNA)
RNA: B9 RNA with G26A, A27C, U28A, U30G, G31A
DNA 1: CAATCTGAATTCCGGTCTCCC
DNA 2: TGGTGGCTACGACGGGATT
B29: UACCUGC (DNA:RNA)
RNA: B1 RNA with U26A, G27C, G28C, A29U, U31C
DNA 1: CAATCTGAATTCCGGTCTCCC
DNA 2: TGGTGGCTACGACGGGATT
B30: CCUUAUG (DNA:RNA)
RNA: B9 RNA with G25C, G26C, A27U, C29A
DNA 1: CAATCTGAATTCCGGTCTCCC
DNA 2: TGGTGGCTACGACGGGATT
B31: CGAAUUU (DNA:RNA)
RNA: B9 RNA with G25C, U28A, C29U, G31U
DNA 1: CAATCTGAATTCCGGTCTCCC
DNA 2: TGGTGGCTACGACGGGATT

Each binder was assayed against T1, RBFOX1 RRM (assay: EMSA; HiTS-Eq, 1 nM pool, 10 min; buffer printed only for the single-RNA assays: 10 mM Tris pH 7.5, 150 mM NaCl, 3.4 mM EDTA, 0.001% NP-40, 30 C). Conditions: tags: His6 N-terminal (pET28a); label: 5' 32P.
Procedure, shortened: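 A pool of RNA with 7 randomized nucleotides, 5′-radiolabelled and with DNA-annealed flanks, was equilibrated at 1 nM for 10 min in 50 µL with purified RbFox RRM, wild type or mutant, across increasing protein concentrations. Free RNA was separated by 8% native PAGE, excised, reverse-transcribed, barcoded by PCR and sequenced. Relative association constants were obtained from read-count changes of each RNA species versus the control reaction and normalised to the cognate motif.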

Compared with B1, B2 is lower in binding signal: 0.0133 KA relative to UGCAUGU for the first, 0.0107 KA relative to UGCAUGU for the second.

Compared with B3, B4 is higher in binding signal: 0.000273 KA relative to UGCAUGU for the first, 0.00184 KA relative to UGCAUGU for the second.

First: B5
Second: B6
The binding signal of the first is higher: 0.00762 KA relative to UGCAUGU for the first, 0.00651 KA relative to UGCAUGU for the second.

First: B7
Second: B8
The binding signal of the first is lower: 0.0169 KA relative to UGCAUGU for the first, 0.017 KA relative to UGCAUGU for the second.

First: B9
Second: B10
The binding signal of the first is higher: 0.0205 KA relative to UGCAUGU for the first, 0.015 KA relative to UGCAUGU for the second.

Compared with B11, B12 is lower in binding signal: 0.00972 KA relative to UGCAUGU for the first, 0.00423 KA relative to UGCAUGU for the second.

First: B13
Second: B14
The binding signal of the first is higher: 0.00565 KA relative to UGCAUGU for the first, 0.00386 KA relative to UGCAUGU for the second.

First: B15
Second: B16
The binding signal of the first is higher: 0.00994 KA relative to UGCAUGU for the first, 0.00776 KA relative to UGCAUGU for the second.

First: B17
Second: B18
The binding signal of the first is higher: 0.00919 KA relative to UGCAUGU for the first, 0.00621 KA relative to UGCAUGU for the second.

First: B19
Second: B20
The binding signal of the first is higher: 0.00643 KA relative to UGCAUGU for the first, 0.00588 KA relative to UGCAUGU for the second.

First: B21
Second: B22
The binding signal of the first is lower: 0.00244 KA relative to UGCAUGU for the first, 0.026 KA relative to UGCAUGU for the second.

First: B23
Second: B24
The binding signal of the first is higher: 0.0187 KA relative to UGCAUGU for the first, 0.00258 KA relative to UGCAUGU for the second.

First: B25
Second: B26
The binding signal of the first is higher: 0.0196 KA relative to UGCAUGU for the first, 0.0171 KA relative to UGCAUGU for the second.

First: B27
Second: B28
The binding signal of the first is higher: 0.0174 KA relative to UGCAUGU for the first, 0.0108 KA relative to UGCAUGU for the second.

First: B29
Second: B30
The binding signal of the first is higher: 0.0124 KA relative to UGCAUGU for the first, 0.0104 KA relative to UGCAUGU for the second.

In the case of B31, the binding signal is reported as 0.00889 KA relative to UGCAUGU.
